Measurements as given in the supplement of paper PMC9174493.
The other results are listed elsewhere or left out. Single values of this set are uncertain. Values with irradiation are relative to irradiated vehicle.

The molecules below were run on A549-Dual (assay: ISRE reporter (Lucia luciferase) activity, viability-corrected, relative to vehicle (fold change vs vehicle); higher = more activation of STING-IRF / NF-kB immune response reporter). Details: 3 µM; irradiation: 8 Gy/4 fr.

Row | SMILES | ISRE reporter
1 | CC1=C(CC(=O)O)c2cc(F)ccc2/C1=C\c1ccc(S(C)=O)cc1 (stereo unspecified) [Sulindac] | 0.902
2 | C1N2CN3CN1CN(C2)C3 [Methenamine] | 1.02
3 | COc1ccc2cc(C(C)C(=O)[O-])ccc2c1.[Na+] (stereo unspecified) [Naproxen Sodium] | 0.913
4 | Cc1ccc(Cl)c(Nc2ccccc2C(=O)[O][Na])c1Cl [Meclofenamate Sodium] | 1
5 | O=C(OCCOCCO)c1ccccc1Nc1cccc(C(F)(F)F)c1 [Etofenamate] | 0.827
6 | O=C([O-])c1cc(N=Nc2ccc(O)c(C(=O)[O-])c2)ccc1O.[Na+].[Na+] [Olsalazine Sodium] | 0.804
7 | CC(=O)Nc1ccc(OC(=O)c2ccccc2OC(C)=O)cc1 [Benorylate] | 0.765
8 | CO/N=C(\C(=O)NC1C(=O)N2C(C(=O)OCOC(=O)C(C)(C)C)=C(C)CSC12)c1csc(N)n1.Cl (stereo unspecified) [Cefetamet pivoxil hydrochloride] | 0.834
9 | CCC(C(=O)O)c1ccc(N2Cc3ccccc3C2=O)cc1 (stereo unspecified) [Indobufen] | 0.945
10 | CS(=O)(=O)O.Cc1ccc(NC(=O)c2ccc(CN3CCN(C)CC3)cc2)cc1Nc1nccc(-c2cccnc2)n1 [Imatinib Mesylate (STI571)] | 0.858
11 | CC(C(=O)O)c1ccc(C(=O)c2ccccc2)s1 (stereo unspecified) [Tiaprofenic acid] | 0.731
12 | CCc1nc(N)nc(N)c1-c1ccc(Cl)cc1 [Pyrimethamine] | 0.986
13 | COc1cc(C2c3cc4c(cc3C(OC3OC5COC(C)OC5C(O)C3O)C3COC(=O)C23)OCO4)cc(OC)c1O (stereo unspecified) [Etoposide] | 0.593
14 | CN(C)CCC(c1ccc(Br)cc1)c1ccccn1.O=C(O)/C=C\C(=O)O (stereo unspecified) [Brompheniramine hydrogen maleate] | 1.25
15 | CC12CCC3c4ccc(O)cc4CC(CCCCCCCCCS(=O)CCCC(F)(F)C(F)(F)F)C3C1CCC2O (stereo unspecified) [Fulvestrant] | 0.764
16 | O=C([O-])CC(O)(CC(=O)[O-])C(=O)[O-].O=C([O-])CC(O)(CC(=O)[O-])C(=O)[O-].[BiH6+3].[K+].[K+].[K+] [Gastrodenol] | 1.22

Row | SMILES | ISRE reporter
17 | CCCCC1(COC(=O)CCC(=O)O)C(=O)N(c2ccccc2)N(c2ccccc2)C1=O [Suxibuzone] | 1.04
18 | O=C(O)Cc1ccccc1Nc1c(Cl)cccc1Cl.OCCN1CCCC1 [Diclofenac Epolamine] | 0.64
19 | Cl.N=C1CCCN1Cc1[nH]c(=O)[nH]c(=O)c1Cl.O=c1[nH]c(=O)n(C2CC(O)C(CO)O2)cc1C(F)(F)F.O=c1[nH]c(=O)n(C2CC(O)C(CO)O2)cc1C(F)(F)F (stereo unspecified) | 0.557
20 | NC(CO)(CO)CO [Trometamol] | 0.9
21 | COc1ccc2c(c1)c(CC(=O)O)c(C)n2C(=O)c1ccc(Cl)cc1 [Indomethacin] | 1.08
22 | Cn1cnc([N+](=O)[O-])c1Sc1ncnc2nc[nH]c12 [Azathioprine] | 0.831
23 | NCCNc1ccc(NCCN)c2c1C(=O)c1ccncc1C2=O.O=C(O)/C=C\C(=O)O.O=C(O)/C=C\C(=O)O [Pixantrone Maleate] | 0.684
24 | CC(=O)Oc1cccc2c1C(=O)c1c(OC(C)=O)cc(C(=O)O)cc1C2=O [Diacerein] | 0.762
25 | CNCC(O)c1ccc(O)c(O)c1.O=C(O)C(O)C(O)C(=O)O (stereo unspecified) [Epinephrine bitartrate] | 1.23
26 | CC1(C(=O)O)CCC2(C)CCC3(C)C(=CC(=O)C4C5(C)CCC(OC6OC(C(=O)O)C(O)C(O)C6OC6OC(C(=O)O)C(O)C(O)C6O)C(C)(C)C5CCC43C)C2C1.N.N (stereo unspecified) [Diammonium Glycyrrhizinate] | 0.884
27 | CCCCCCCCCCCCCCCCCCOP(=O)([O-])OC1CC[N+](C)(C)CC1 [Perifosine (KRX-0401)] | 0.681
28 | COc1c2occc2cc2ccc(=O)oc12 [Methoxsalen] | 0.922
29 | O=C(O)CCCN1CCC(OC(c2ccc(Cl)cc2)c2ccccn2)CC1 (stereo unspecified) [Bepotastine] | 0.94
30 | CN(C)CCCOc1nn(Cc2ccccc2)c2ccccc12.Cl [Benzydamine HCl] | 0.857
31 | CC(C(=O)O)c1ccc2c(c1)[nH]c1ccc(Cl)cc12 (stereo unspecified) [Carprofen] | 0.709
